Screen size: about 330,000 compounds; about 300 (0.091%) were called active. The shares of active, inactive and inconclusive entries below differ from those in the screen. The call rests on the fitted dose curve; in most records, active means well fitted inhibition curve with a large enough effect; inconclusive means small, poorly fitted or top-dose-only effect, or effect the other way, or another doubt; inactive means no such curve, though single readings can be large or run the other way. No potency is given beside an inconclusive call; the fits are too rough.
What follows are molecules tested against Lysosomal acid glucosylceramidase (Homo sapiens) (UniProt P04062) (assay: qHTS Assay for Inhibitors and Activators of N370S glucocerebrosidase as a Potential Chaperone Treatment of Gaucher Disease). Settings: N370S GC spleen homogenate, 4MU-glucoside fluorescence; activity change, negative = inhibition: at 59.4 µM (top of the series) unless noted.
Potency means the concentration at half of the fitted maximal effect.
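Wherever activity change, negative = inhibition is given: 0% = full enzyme activity and -100% = no enzyme basal.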

**Q.** With `O=C(Nc1cc(Oc2ccccc2)cc([N+](=O)[O-])c1)C12CC3CC(C1)CC(n1cnc(Cl)n1)(C3)C2` as the molecule, how does the Potency read?
**A.** inconclusive [activator, partial curve]

**Q.** With `Cc1coc2c1c(C)cc1oc(=O)c(CC(=O)NCCCCCC(=O)O)c(C)c12` as the molecule, how does the Potency read?
**A.** inconclusive [activator, partial curve]

**Q.** `c1cncc(-c2nc(NCC3COc4ccccc4O3)c3ccccc3n2)c1` (centres undefined) was tested. Which Potency did it give?
**A.** inconclusive [inhibitor, partial curve]

**Q.** With `Cc1ccc(NC(=O)CC2SC(=O)N(c3ccccc3)C2=O)cc1` (centres undefined) as the molecule, how does the Potency read?
**A.** inactive

**Q.** With `Nc1cc2c3c(cccc3c1)C(=O)N(CCN1CCCC1)C2=O` as the molecule, how does the Potency read?
**A.** inactive

**Q.** For `COc1cc(NC2c3ccccc3C(=O)N2Cc2ccc3c(c2)OCO3)cc(OC)c1` (centres undefined), which Potency is on record?
**A.** inconclusive [activator, single point]

**Q.** For `COCC(C)n1c(C)cc(C(=O)CSc2cc(C)c3ccccc3n2)c1C` (centres undefined), which Potency is on record?
**A.** inconclusive [activator, partial curve]

**Q.** For `O=C(NC1CCCCC1)C(c1cccs1)N(C(=O)C(F)(F)F)c1ccccc1` (centres undefined), which Potency is on record?
**A.** inconclusive [activator, single point]

**Q.** With `O=C(NC1CCCCCC1)c1ccc(CS(=O)(=O)Cc2ccccc2F)o1` as the molecule, how does the activity change, negative = inhibition read?
**A.** inconclusive: 31.3% [activator]

**Q.** `O=c1cc2[nH]c3ccccc3c(=O)n2nc1-c1ccccc1` was tested. Which activity change, negative = inhibition did it give?
**A.** inconclusive: 33% [activator]

**Q.** `Fc1ccc(-c2cc(C(F)(F)F)nc(NCC3CCCO3)n2)cc1` (centres undefined) was tested. Which Potency did it give?
**A.** inconclusive [activator, partial curve, poor fit]

**Q.** Which Potency does the source give for `COc1ccc(COC(=O)c2cc(S(=O)(=O)N3CCCCC3)ccc2N2CCOCC2)cc1` here?
**A.** inconclusive [activator, partial curve]

**Q.** With `CCCOC(=O)Nc1ccc(C(N)=O)cc1` as the molecule, how does the activity change, negative = inhibition read?
**A.** inconclusive: 32.1% [activator]

**Q.** How did the Potency turn out when `Cc1oc2c(O)c(O)ccc2c(=O)c1-c1cnn(-c2ccccc2)c1` was run?
**A.** inactive

**Q.** For `Cc1cccc(N=Nc2cnc(N)s2)c1`, which Potency is on record?
**A.** inconclusive [inhibitor, partial curve]

**Q.** Which Potency does the source give for `C=CCn1c(SCC(=O)c2cccs2)nc2sc(CC)cc2c1=O` here?
**A.** inconclusive [activator, partial curve]

**Q.** How did the Potency turn out when `Cc1ccc(/C=N/NC(=O)c2cccs2)cc1[N+](=O)[O-]` was run?
**A.** inactive

**Q.** `COCCn1c(-c2ccsc2)nc2c1c(=O)[nH]c(=O)n2CC(C)C` was tested. Which Potency did it give?
**A.** inconclusive [activator, partial curve, poor fit]

**Q.** With `COc1ccc2c(=O)cc(-c3ccc(O)cc3)oc2c1` as the molecule, how does the Potency read?
**A.** inconclusive [inhibitor, single point]

**Q.** Which Potency does the source give for `N#Cc1nc(-c2ccco2)oc1N1CCN(c2ccccc2)CC1` here?
**A.** inconclusive [activator, partial curve]

**Q.** With `CCc1ccc(CNc2ccc(N3CCN(C(C)=O)CC3)cc2)cc1` as the molecule, how does the Potency read?
**A.** inactive

**Q.** Which Potency does the source give for `CC(C(=O)O)n1nc2ccccc2n1` (centres undefined) here?
**A.** inconclusive [inhibitor, single point]

**Q.** Which Potency does the source give for `COc1ccc(C2=NOC(Cn3nc(C(=O)NCc4cccs4)cc3-c3ccccc3)C2)cc1` (centres undefined) here?
**A.** inconclusive [activator, partial curve]

**Q.** For `COc1ccc(/C(N)=N/OC(=O)c2ccco2)cc1OC`, which Potency is on record?
**A.** inactive

**Q.** How did the Potency turn out when `Cc1ccc(-n2nc3ccc(N)cc3n2)cc1C` was run?
**A.** inconclusive [activator, partial curve]

**Q.** `CCOc1ccccc1N1CCN(C(=O)c2ccc(NS(=O)(=O)c3ccc4[nH]c(=O)[nH]c4c3)cc2)CC1` was tested. Which Potency did it give?
**A.** inconclusive [inhibitor, single point]

**Q.** `CC(C)CC(NC(=O)c1ccc(Cl)cc1)C(=O)OCc1cc([N+](=O)[O-])cc2c1OCOC2` (centres undefined) was tested. Which Potency did it give?
**A.** inconclusive [activator, partial curve]

**Q.** With `O=c1[nH]c2ccccc2n1CCCSc1cnc2ccccc2n1` as the molecule, how does the Potency read?
**A.** inconclusive [activator, single point]

**Q.** `c1ccc2c(Nc3nc(-c4ccncc4)nc4ccccc34)cccc2c1` was tested. Which Potency did it give?
**A.** inconclusive [inhibitor, partial curve]

**Q.** Which Potency does the source give for `COc1ccc(C(OCC(O)CNCCc2ccccc2)c2ccc(OC)cc2)cc1` (centres undefined) here?
**A.** inconclusive [inhibitor, full curve, poor fit]

**Q.** Which Potency does the source give for `Cc1cc(N/N=C/c2ccc(Cl)cc2)nc(NCc2ccccc2)n1` here?
**A.** inconclusive [inhibitor, single point]

**Q.** `C#CCOCCOCCOCCNc1nc(N2CCN(C(=O)CCCCCCCCCCNC(=O)[C@H](CCCCN)n3cc(CCO)nn3)CC2)nc(N2CCN(C(=O)CCCCCCCCCCNC(=O)[C@H](CCCCN)n3cc(CCO)nn3)CC2)n1` was tested. Which Potency did it give?
**A.** inconclusive [inhibitor, full curve]

**Q.** With `NCCc1ccc(O)c(O)c1` as the molecule, how does the Potency read?
**A.** inactive

**Q.** How did the Potency turn out when `O=C(c1ccc(F)cc1)N1CCC(c2ccccc2)C1` (centres undefined) was run?
**A.** inactive

**Q.** Which activity change, negative = inhibition does the source give for `O=C(Nc1cc(Cl)ccc1Cl)C1CC(=O)N(c2ccc(Br)cc2)C1` (centres undefined) here?
**A.** inconclusive: 24.4% [activator]

**Q.** How did the Potency turn out when `CC1C(=O)C(C)C(c2ccc(Br)cc2)NC1c1ccc(Br)cc1` (centres undefined) was run?
**A.** inconclusive [inhibitor, full curve, poor fit]

**Q.** Which Potency does the source give for `CC(=O)COc1nc2c(c(-c3ccco3)c1C#N)CCc1ccccc1-2` here?
**A.** inconclusive [activator, partial curve]

**Q.** Which Potency does the source give for `C=CCSc1nc(-c2ccc(OC)cc2)c(C#N)c(=O)n1CC=C` here?
**A.** inconclusive [activator, single point]

**Q.** With `CC(C)c1ccc(-c2cc(C(=O)N3N=C(C(F)F)CC3(O)C(F)F)c3ccccc3n2)cc1` (centres undefined) as the molecule, how does the Potency read?
**A.** inconclusive [inhibitor, partial curve]

**Q.** How did the Potency turn out when `CCC(=O)Nc1c(S(=O)(=O)c2ccccc2)c2nc3ccccc3nc2n1Cc1ccccc1` was run?
**A.** inconclusive [activator, single point]

**Q.** With `Cn1c(SCCCC(=O)c2ccc(Br)cc2)nnc1-c1ccncc1` as the molecule, how does the Potency read?
**A.** inconclusive [inhibitor, single point]

**Q.** For `CC(=O)NCCNc1ncnc2ccc(-c3c(C)noc3C)cc12`, which Potency is on record?
**A.** inactive

**Q.** Which Potency does the source give for `O=C(CSc1nnc(-c2ccncc2)n1Cc1ccco1)Nc1ccccc1Cl` here?
**A.** inactive

**Q.** Which Potency does the source give for `Cc1cccc(/C=C(\C#N)C(=O)Nc2ccccn2)c1` here?
**A.** inactive

**Q.** For `COc1cccc(OCC(=O)Nc2cc(Cl)ccc2Oc2ccccc2)c1`, which Potency is on record?
**A.** inconclusive [activator, single point]

**Q.** Which Potency does the source give for `CCC(=O)Oc1ccc(C/C(=N\O)c2ccc(O)cc2O)o1` here?
**A.** inactive

**Q.** `COc1ccc(OC)c(/C=N/NC(=O)c2cc3c(OC)cc(OC)cc3[nH]2)c1` was tested. Which activity change, negative = inhibition did it give?
**A.** inconclusive: 26.2% [activator]

**Q.** Which Potency does the source give for `Cc1cc(NCCCO)n2c(nc3ccccc32)c1C#N` here?
**A.** inconclusive [activator, partial curve]

**Q.** With `CCc1c(C#N)c(SCc2c(C)noc2C)nc2c1C(=O)CC(C)(C)C2` as the molecule, how does the Potency read?
**A.** inconclusive [activator, single point]

**Q.** `CCN(CCCCO)c1nc(C)nc2c1c(C)c(C)n2-c1c(C)cc(C)cc1C` was tested. Which Potency did it give?
**A.** inactive

**Q.** Which Potency does the source give for `O=C(Nc1nnc(CC2=CCCCC2)s1)c1cccs1` here?
**A.** inconclusive [activator, partial curve]

**Q.** Which Potency does the source give for `O=S(=O)(CCOc1ccccc1)c1nc2ccccc2[nH]1` here?
**A.** inactive

**Q.** How did the Potency turn out when `Cc1cc2[nH]c(=O)c(=O)[nH]c2cc1S(=O)(=O)N(C)C1CCCCC1` was run?
**A.** inconclusive [inhibitor, partial curve]

**Q.** For `Cc1nnn(C23CC4CC(CC(CC(=O)Nc5ccc(C)c(Cl)c5)(C4)C2)C3)n1`, which Potency is on record?
**A.** inconclusive [activator, single point]

**Q.** With `CCOc1cc(CNCCO)cc(Br)c1OCc1ccccc1Cl` as the molecule, how does the Potency read?
**A.** inconclusive [inhibitor, single point]

**Q.** With `CCOC(=O)c1c(NC(=O)CSc2nnc(C)s2)sc2c1CCC(C)C2` (centres undefined) as the molecule, how does the Potency read?
**A.** inconclusive [activator, partial curve]

**Q.** `COc1ccc(C2CC(c3ccc(Br)cc3)=NN2C(=O)c2cccnc2)cc1` (centres undefined) was tested. Which Potency did it give?
**A.** inconclusive [activator, single point]

**Q.** With `COc1ccc(NC(=S)N(CCc2c(C)[nH]c3ccc(C)cc23)Cc2ccco2)cc1` as the molecule, how does the Potency read?
**A.** inactive

**Q.** With `Cc1ccc(CN(C)C(=O)c2ccccc2Oc2ccccc2)o1` as the molecule, how does the Potency read?
**A.** inconclusive [inhibitor, single point]

**Q.** `CC(C)Cc1nnc(NC(=O)CCC(=O)Nc2ccc3cn[nH]c3c2)s1` was tested. Which Potency did it give?
**A.** inconclusive [activator, partial curve]

**Q.** `CCc1nc(N2CCCCC2C)c2oc3ccccc3c2n1` (centres undefined) was tested. Which Potency did it give?
**A.** inconclusive [activator, single point]

**Q.** How did the Potency turn out when `O=C(CSc1nnc(-c2cccnc2)o1)Nc1cccc(F)c1` was run?
**A.** inactive

**Q.** `COc1ccc(OC)c(CN2CCN(Cc3cc(=O)oc4cc(O)ccc34)CC2)c1` was tested. Which Potency did it give?
**A.** inconclusive [activator, partial curve]

**Q.** How did the Potency turn out when `COC(=O)c1cc(NCc2ccccc2F)ccc1N1CCOCC1` was run?
**A.** inactive

**Q.** For `CCOc1ccc(N(CC(=O)NCC2CCCO2)S(=O)(=O)c2ccc(SC)cc2)cc1` (centres undefined), which Potency is on record?
**A.** inconclusive [inhibitor, single point]

**Q.** Which Potency does the source give for `O=C(CSc1ncnc2c1oc1ccccc12)Nc1cccc(Cl)c1` here?
**A.** inactive

**Q.** With `CCn1cc(CN2CCC(C(=O)Nc3cccc(-c4cccc(Cl)c4)c3)CC2)cn1` as the molecule, how does the Potency read?
**A.** inconclusive [inhibitor, single point]

**Q.** With `Cc1cccc(Nc2nnc(SCC(=O)Nc3ccccc3[N+](=O)[O-])s2)c1` as the molecule, how does the Potency read?
**A.** inactive

**Q.** Which Potency does the source give for `CCOc1ccccc1NC(=O)NNC(=O)c1ccc2ccccc2c1` here?
**A.** inactive
